The assay deals with RPE1. Description: nucleolar normality score relative to DMSO (fraction of DMSO control); RPE1 is a non-cancer human cell line; higher = more normal nucleoli (less nucleolar stress). Conditions: 24 h.

These results are taken from the supplement of paper PMC10723795.

SMILES strings stand for the structures. Where a name gives a salt, the structure may show the parent alone. Some of the results follow.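 How the source made its calls: active = more than 2 SD below the DMSO mean: under 0.85 at 10 µM or 0.885 at 1 µM; inactive = the rest.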 Many values rest on one well or one pass, so single values are uncertain.
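Further: fixed cells immunolabelled for nucleolin and UBF, 40 image fields per well in 384-well plates, per-cell score = nucleolin nucleolar/nucleoplasm intensity ratio divided by the matching UBF ratio.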

As to `CN1CCN(c2ccc(Nc3ncc4cc(C#N)c(=O)n(C5CCCC5)c4n3)cc2)CC1`, the nucleolar normality score (1 µM) is inactive: 0.941 and the nucleolar normality score (10 µM) is inactive: 0.924.

Take `CC#CC(=O)N1CCC(n2c(=O)n(-c3ccc(Oc4ccccc4)cc3)c3c(N)ncnc32)C1` (stereo unspecified) [ONO-4059 (GS-4059) hydrochloride]: the nucleolar normality score (1 µM) was inactive: 0.981 and the nucleolar normality score (10 µM) was inactive: 1.

`O=C(O)Cc1cccc(OCCCN(Cc2cccc(C(F)(F)F)c2Cl)CC(c2ccccc2)c2ccccc2)c1`: the nucleolar normality score (1 µM) is inactive: 1.03 and the nucleolar normality score (10 µM) was inactive: 1.09.

For the compound `C[C@]1(c2nc3c(C(N)=O)cccc3[nH]2)CCCN1` [Veliparib (ABT-888)], the nucleolar normality score reads like this: (1 µM) inactive: 0.927; (10 µM) inactive: 1.02.

For `OC(CC1c2ccccc2-c2cncn21)C1CCCCC1` (stereo unspecified), the nucleolar normality score reads like this: (1 µM) inactive: 0.987; (10 µM) inactive: 1.04.

With `O=C1C(c2[nH]c3ccccc3c2O)=Nc2ccccc21` [Indigo], the nucleolar normality score is, setting by setting: (1 µM) inactive: 0.989; (10 µM) inactive: 0.91.

`COC(=O)Nc1ccc(-c2nc(N3CCOCC3)c3cnn(C4CCN(C(=O)OC)CC4)c3n2)cc1`: the nucleolar normality score reads like this: (1 µM) inactive: 1.11; (10 µM) inactive: 1.11.

`NCCCC(O)(P(=O)(O)O)P(=O)(O)O` [Alendronate sodium trihydrate]: the nucleolar normality score is, setting by setting: (1 µM) inactive: 1.11; (10 µM) inactive: 1.07.

With `N.N.O=C([O-])C[O-].[Pt+2]` [Nedaplatin], the nucleolar normality score by setting is: (1 µM) inactive: 0.988; (10 µM) inactive: 1.05.

As to `C[C@H](CC(=O)C[C@@H](C)[C@H]1C[C@H](O)[C@@]2(C)C3=C(C(=O)C[C@]12C)[C@@]1(C)CCC(=O)C(C)(C)[C@@H]1C[C@@H]3O)C(=O)O` [Ganoderic acid A], the nucleolar normality score is inactive: 1.06 (1 µM) and inactive: 1.09 (10 µM).

Consider `Cc1cnc(Nc2ccc(F)cc2Cl)nc1-c1c[nH]c(C(=O)NC(CO)c2cccc(Cl)c2)c1` (stereo unspecified), for which the nucleolar normality score runs as follows: (1 µM) inactive: 1.01; (10 µM) inactive: 1.

For `CC(C)n1c(/C=C/C(O)CC(O)CC(=O)O)c(-c2ccc(F)cc2)c2ccccc21` (stereo unspecified) [Fluvastatin Sodium], the nucleolar normality score (1 µM) is inactive: 0.922 and the nucleolar normality score (10 µM) is inactive: 1.02.

For the compound `CC(C)N(CCCNC(=O)Nc1ccc(C(C)(C)C)cc1)C[C@H]1O[C@@H](n2cc(Br)c3c(N)ncnc32)[C@H](O)[C@@H]1O`, the nucleolar normality score by setting is: (1 µM) inactive: 1.08; (10 µM) inactive: 1.07.

Regarding `COc1c/c(=C2\C=c3ccccc3=N2)[nH]/c1=C\c1[nH]c(C)cc1C` [Obatoclax Mesylate (GX15-070)], the nucleolar normality score (1 µM) is active: 0.806 and the nucleolar normality score (10 µM) is active: 0.581.

For `COc1cc(N2CCC(N)CC2)ccc1Nc1ncc(Cl)c(-c2c[nH]c3ccccc23)n1`, the nucleolar normality score (1 µM) was active: 0.68 and the nucleolar normality score (10 µM) is active: 0.619.

For `Nc1[nH]nc2nnc(-c3c(-c4ccccc4)nn4ccccc34)cc12`, the nucleolar normality score reads like this: (1 µM) inactive: 0.95; (10 µM) inactive: 1.03.

Turning to `NC(=O)/C(=C/n1cnc(-c2cc(C(F)(F)F)cc(C(F)(F)F)c2)n1)c1cncnc1` [Eltanexor (KPT-8602)], the nucleolar normality score (1 µM) is inactive: 1.1 and the nucleolar normality score (10 µM) was inactive: 1.03.

For `Nc1nonc1C(=Nc1ccc(F)c(Cl)c1)NO`, the nucleolar normality score by setting is: (1 µM) inactive: 1; (10 µM) inactive: 1.03.

`CCN(CC)CCOc1ccc2c(c1)C(=O)c1cc(OCCN(CC)CC)ccc1-2` [Tilorone dihydrochloride]: the nucleolar normality score was inactive: 1 (1 µM) and active: 0.826 (10 µM).

Regarding `O=C(O)c1ccc2c(c1)nc(Nc1cccc(Cl)c1)c1ccncc12` [Silmitasertib (CX-4945)], the nucleolar normality score was inactive: 1 (1 µM) and inactive: 1.04 (10 µM).

Consider `O=C1NCCc2[nH]c(-c3ccncc3)cc21`, for which the nucleolar normality score runs as follows: (1 µM) inactive: 0.936; (10 µM) active: 0.657.

In the case of `COc1ccc(S(=O)(=O)Nc2cccnc2Nc2ccc(O)cc2)cc1`, the nucleolar normality score is inactive: 1.04 (1 µM) and inactive: 1.09 (10 µM).

Turning to `O=C(/C=C/c1ccc(O)c(O)c1)c1ccc(O)cc1O` [Butein], the nucleolar normality score was inactive: 1.08 (1 µM) and inactive: 1.04 (10 µM).

As for `O=C(CCCCCCC(=O)Nc1ccccc1)NO` [Vorinostat (SAHA, MK0683)], the nucleolar normality score (1 µM) is inactive: 0.962 and the nucleolar normality score (10 µM) is inactive: 1.05.

In the case of `NC(=O)c1cc(F)cc2c1C(=O)N(C1CCN(C3CCC(F)(F)CC3)CC1)C2`, the nucleolar normality score by setting is: (1 µM) inactive: 1.05; (10 µM) inactive: 1.01.

In the case of `CC(C)=CCC[C@](C)(O[C@@H]1O[C@H](CO)[C@@H](O)[C@H](O)[C@H]1O)[C@H]1CC[C@]2(C)[C@@H]1[C@H](O)C[C@@H]1[C@@]3(C)CC[C@H](O)C(C)(C)[C@@H]3[C@@H](O[C@@H]3O[C@H](CO)[C@@H](O)[C@H](O)[C@H]3O)C[C@]12C` [Ginsenoside Rg1], the nucleolar normality score reads like this: (1 µM) inactive: 1.02; (10 µM) inactive: 0.861.

For the compound `COc1cc2/c(=N/c3ccc(Br)cc3F)nc[nH]c2cc1OCC1CCN(C)CC1` [Vandetanib (ZD6474)], the nucleolar normality score is inactive: 1.05 (1 µM) and inactive: 1.01 (10 µM).

For `O=C1C(=Cc2cccnc2)C(=O)c2ccccc21`, the nucleolar normality score runs as follows: (1 µM) inactive: 0.945; (10 µM) inactive: 0.997.

Turning to `CCN(CC)C(=S)SSC(=S)N(CC)CC` [Disulfiram], the nucleolar normality score is inactive: 0.931 (1 µM) and inactive: 0.971 (10 µM).

For the compound `O=C(CCCCCN1C(=O)c2cccc3cccc(c23)C1=O)NO` [Scriptaid], the nucleolar normality score is inactive: 1 (1 µM) and inactive: 1.04 (10 µM).

Turning to `O=C(O)C(Cc1c[nH]c2ccccc12)N1C(=O)c2ccccc2C1=O` (stereo unspecified), the nucleolar normality score is inactive: 0.985 (1 µM) and inactive: 1.07 (10 µM).

Take `Cc1cc(C(=O)Nc2nc3cccc(Cl)c3n2[C@@H]2CCCCN(C(=O)/C=C/CN(C)C)C2)ccn1` [Nazartinib (EGF816, NVS-816)]: the nucleolar normality score runs as follows: (1 µM) inactive: 1.06; (10 µM) inactive: 1.06.

As for `CC#CC(=O)Nc1ccc2ncnc(Nc3cccc(Br)c3)c2c1`, the nucleolar normality score (1 µM) was inactive: 0.946 and the nucleolar normality score (10 µM) is inactive: 0.868.

As for `Cc1nc2cccc(N)c2c(=O)n1C1CCC(=O)NC1=O` (stereo unspecified) [Avadomide(CC-122)], the nucleolar normality score was inactive: 1.01 (1 µM) and inactive: 1.07 (10 µM).

Regarding `COc1cc(F)c(F)c(Nc2ccc(I)cc2F)c1NS(=O)(=O)C1(C[C@H](O)CO)CC1` [Refametinib (RDEA119, Bay 86-9766)], the nucleolar normality score reads like this: (1 µM) inactive: 1.04; (10 µM) inactive: 1.06.

Turning to `CS(=O)(=O)N1CCN(Cc2cc3nc(-c4cccc5[nH]ncc45)nc(N4CCOCC4)c3s2)CC1` [Pictilisib (GDC-0941)], the nucleolar normality score was inactive: 0.938 (1 µM) and inactive: 0.972 (10 µM).

As for `NCCSSCCN` [Cystamine dihydrochloride], the nucleolar normality score reads like this: (1 µM) inactive: 1.04; (10 µM) inactive: 0.928.

In the case of `CC(=O)OCC(=O)[C@@]1(O)[C@H](C)C[C@H]2[C@@H]3CCC4=CC(=O)C=C[C@]4(C)[C@@]3(F)[C@@H](O)C[C@@]21C` [Dexamethasone Acetate], the nucleolar normality score is, setting by setting: (1 µM) inactive: 1.11; (10 µM) inactive: 1.09.
